Some of the results follow. The full chains were built here from the parent and the listed change. Inactive controls read about 0.05.
B1: TEV protease; numbered along this chain (parent)
chain: MGESLFKGPRDYNPISSSICHLTNESDGHTTSLYGIGFGPFIITNKHLFRRNNGTLVVQSLHGVFKVKDTTTLQQHLVDGRDMIIIRMPKDFPPFPQKLKFREPQREERICLVTTNFQTKSMSSMVSDTSCTFPSGDGIFWKHWIQTKDGQCGSPLVSTRDGFIVGIHSASNFTNTNNYFTSVPKNFMELLTNQEAQQWVSGWRLNADSVLWGGHKVFMVKPEEPFQPVKEATQL

Variants of: B1
Assay: raw area under fraction-flipped curve 0-4 h after induction (AUC4h, not background-subtracted), DNA-recorder readout of cleavage of the substrate (dimensionless); higher = more cleavage of the substrate by the protease variant
Details: temperature: 34 °C; time window: 0-4 h after rhamnose induction
Procedure: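 In vivo DNA recorder in E. coli TOP10(DE3) ΔrhaA at 34 °C. Each TEVp single-site mutant (parent TEVp 0) is paired with a single-site variant of the 7-mer TEVs (canonical ENLYFQ|S). The substrate sits between flexible linkers in a Bxb1-sfGFP-TEVs-SsrA fusion, so cleavage stabilises Bxb1 and speeds flipping of a recombination array, read by NGS. The value is the raw area under the fraction-flipped curve over 0-4 h after rhamnose induction (AUC4h), with ≥20 reads per time point. It is not background-subtracted; inactive controls average about 0.047.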
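Note: Bxb1 expression induced with 0.2% (w/v) L-rhamnose at OD600 near 0.5, cultures sampled hourly, flipped fraction per protease–substrate barcode pair counted by paired-end Illumina sequencing.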

Variant | area with substrate EALYFQS | area with substrate ECLYFQS | area with substrate EDLYFQS | area with substrate EELYFQS | area with substrate EFLYFQS | area with substrate EGLYFQS | area with substrate EILYFQS | area with substrate EKLYFQS | area with substrate ELLYFQS | area with substrate EPLYFQS | area with substrate EQLYFQS | area with substrate ERLYFQS | area with substrate ESLYFQS | area with substrate ETLYFQS | area with substrate EVLYFQS | area with substrate EYLYFQS | area with substrate EMLYFQS | area with substrate EWLYFQS | area with substrate EHLYFQS
MGESLFKGPRDYNPISSSICHLTNESDGHTTSLYGIGFGPFIITNKHLFRRNNGTLVVQSLHGVFKVKDTTTLQQHLVDGRDMIIIRMPKDFPPFPQKLKFREPQREERICLVTTNFQTKSMSSMVSDTSCTFPSGDGIFWKHWIQTKDGQCGSPLVSTRDGFIVGIHSASNFTKTNNYFTSVPKNFMELLTNQEAQQWVSGWRLNADSVLWGGHKVFMVKPEEPFQPVKEATQL [N175K] | 0.112 | 0.0821 | 0.164 | 0.122 | 0.159 | 0.082 | 0.0832 | 0.0864 | 0.0946 | 0.135 | 0.105 | 0.0794 | 0.125 | 0.102 | 0.0942 | 0.0881 |  |  | 
MGESLFKGPRDYNPISSSICHLTNESDGHTTSLYGIGFGPFIRTNKHLFRRNNGTLVVQSLHGVFKVKDTTTLQQHLVDGRDMIIIRMPKDFPPFPQKLKFREPQREERICLVTTNFQTKSMSSMVSDTSCTFPSGDGIFWKHWIQTKDGQCGSPLVSTRDGFIVGIHSASNFTNTNNYFTSVPKNFMELLTNQEAQQWVSGWRLNADSVLWGGHKVFMVKPEEPFQPVKEATQL [I43R] | 0.0558 | 0.0504 | 0.0436 | 0.0481 | 0.111 | 0.0566 | 0.0604 | 0.0569 | 0.0377 | 0.0365 | 0.0376 | 0.0541 | 0.0481 | 0.0442 | 0.0298 | 0.0489 | 0.0368 | 0.0484 | 
MGESLFKGPRDYNPISSSICHLTNESDGHTTSLYGIGFGNFIITNKHLFRRNNGTLVVQSLHGVFKVKDTTTLQQHLVDGRDMIIIRMPKDFPPFPQKLKFREPQREERICLVTTNFQTKSMSSMVSDTSCTFPSGDGIFWKHWIQTKDGQCGSPLVSTRDGFIVGIHSASNFTNTNNYFTSVPKNFMELLTNQEAQQWVSGWRLNADSVLWGGHKVFMVKPEEPFQPVKEATQL [P40N] | 0.134 | 0.113 | 0.144 | 0.143 | 0.102 |  | 0.11 | 0.108 | 0.0969 | 0.132 | 0.133 | 0.106 | 0.181 | 0.104 | 0.0976 |  | 0.13 | 0.0517 | 
MGESLFKGPRDYNPISSSICHLTNESDGHTTSLYGIGFGLFIITNKHLFRRNNGTLVVQSLHGVFKVKDTTTLQQHLVDGRDMIIIRMPKDFPPFPQKLKFREPQREERICLVTTNFQTKSMSSMVSDTSCTFPSGDGIFWKHWIQTKDGQCGSPLVSTRDGFIVGIHSASNFTNTNNYFTSVPKNFMELLTNQEAQQWVSGWRLNADSVLWGGHKVFMVKPEEPFQPVKEATQL [P40L] | 0.102 |  | 0.0986 | 0.131 | 0.0937 | 0.0966 | 0.093 |  | 0.0858 | 0.0669 | 0.129 |  | 0.0944 | 0.0621 | 0.102 |  |  |  | 0.0045
MGESLFKGPRDYNPISSSICHLTNESDGHTTSLYGIGFGPFIITNKHLFRRNNGTLVVQSLHGVFKVKDTTTLQQHLVDGRDMIIIRMPKDFPPFPQKLKFREPQREERICLVTTNFQTKSMSSMVSDTSCTFPSGDGIFWKHHIQTKDGQCGSPLVSTRDGFIVGIHSASNFTNTNNYFTSVPKNFMELLTNQEAQQWVSGWRLNADSVLWGGHKVFMVKPEEPFQPVKEATQL [W144H] | 0.094 | 0.107 | 0.0954 |  |  |  | 0.0964 | 0.0213 |  | 0.0668 | 0.0567 | 0.0897 | 0.0778 |  | 0.0675 | 0.0871 |  |  | 0.109
MGESLFKGPRDYNPISSSICHLTDESDGHTTSLYGIGFGPFIITNKHLFRRNNGTLVVQSLHGVFKVKDTTTLQQHLVDGRDMIIIRMPKDFPPFPQKLKFREPQREERICLVTTNFQTKSMSSMVSDTSCTFPSGDGIFWKHWIQTKDGQCGSPLVSTRDGFIVGIHSASNFTNTNNYFTSVPKNFMELLTNQEAQQWVSGWRLNADSVLWGGHKVFMVKPEEPFQPVKEATQL [N24D] | 0.0727 | 0.0801 |  | 0.0781 |  |  | 0.0575 | 0.0821 |  |  | 0.0905 | 0.0805 | 0.152 |  | 0.0593 | 0.0653 | 0.108 | 0.0541 | 
MGESLFKGPRDYNPISSSICHLTNESDGHTTSLYGIGFGPFIITNKHLFRRNNGTTVVQSLHGVFKVKDTTTLQQHLVDGRDMIIIRMPKDFPPFPQKLKFREPQREERICLVTTNFQTKSMSSMVSDTSCTFPSGDGIFWKHWIQTKDGQCGSPLVSTRDGFIVGIHSASNFTNTNNYFTSVPKNFMELLTNQEAQQWVSGWRLNADSVLWGGHKVFMVKPEEPFQPVKEATQL [L56T] | 0.063 |  | 0.0748 | 0.0569 | 0.0795 |  |  | 0.055 | 0.059 | 0.0853 | 0.073 | 0.0759 | 0.0454 |  | 0.0609 | 0.108 | 0.0697 |  | 
MGESLFKGPRDYNPISSSICHLTNESDGHTTSLYGIGFGPFIITNKHLFRRNNGTMVVQSLHGVFKVKDTTTLQQHLVDGRDMIIIRMPKDFPPFPQKLKFREPQREERICLVTTNFQTKSMSSMVSDTSCTFPSGDGIFWKHWIQTKDGQCGSPLVSTRDGFIVGIHSASNFTNTNNYFTSVPKNFMELLTNQEAQQWVSGWRLNADSVLWGGHKVFMVKPEEPFQPVKEATQL [L56M] | 0.139 | 0.0909 |  |  | 0.107 |  | 0.0867 | 0.13 | 0.0864 |  |  | 0.106 | 0.103 |  | 0.101 | 0.103 | 0.111 |  | 
MGESLFKGPRDYNPISSSICHLTNESDGHTTSLYGIGFGPFIITNKHLFRRNNGTLVVQSLHGVFKVKDTTTLQQHLVDGRDMIIIRMPKDFPPFPQKLKFREPQREERICLVTTNFQTKSMSSMVSDTSCTFPSGDGIFWKHWIQTKDGQCGSPLVSTRDGFIVGIHSASNFTNTNNYFTSVPKNFMELLTNQEAQQWVSGWRLNADSVLWGGHKVFMVKPENPFQPVKEATQL [E224N] | 0.147 | 0.098 | 0.0958 | 0.111 |  |  | 0.102 | 0.073 | 0.055 | 0.0497 | 0.0979 | 0.134 | 0.108 |  | 0.0587 | 0.099 | 0.0673 | 0.0677 | 0.0998

Reference: the supplement of paper PMC12217912
